Positions count from the first letter of the chain named. Some of the results follow.

First the molecules themselves.
B1: ACUCCAG (DNA:RNA)
RNA: GGGAGACCGGAAUUCAGAUUGUCCACUCCAGUUAAAUCCCGUCGUAGCCACCA
DNA 1: CAATCTGAATTCCGGTCTCCC
DNA 2: TGGTGGCTACGACGGGATT
B2: UUCCGUA (DNA:RNA)
RNA: B1 RNA with A25U, C26U, U27C, C29G, A30U, G31A
DNA 1: CAATCTGAATTCCGGTCTCCC
DNA 2: TGGTGGCTACGACGGGATT
B3: CGGUCAA (DNA:RNA)
RNA: B1 RNA with A25C, C26G, U27G, C28U, G31A
DNA 1: CAATCTGAATTCCGGTCTCCC
DNA 2: TGGTGGCTACGACGGGATT
B4: ACAUAUU (DNA:RNA)
RNA: B1 RNA with U27A, C28U, C29A, A30U, G31U
DNA 1: CAATCTGAATTCCGGTCTCCC
DNA 2: TGGTGGCTACGACGGGATT
B5: UAGAGGA (DNA:RNA)
RNA: GGGAGACCGGAAUUCAGAUUGUCCUAGAGGAUUAAAUCCCGUCGUAGCCACCA
DNA 1: CAATCTGAATTCCGGTCTCCC
DNA 2: TGGTGGCTACGACGGGATT
B6: CACCUCA (DNA:RNA)
RNA: B5 RNA with U25C, G27C, A28C, G29U, G30C
DNA 1: CAATCTGAATTCCGGTCTCCC
DNA 2: TGGTGGCTACGACGGGATT
B7: GCCACCU (DNA:RNA)
RNA: B1 RNA with A25G, U27C, C28A, A30C, G31U
DNA 1: CAATCTGAATTCCGGTCTCCC
DNA 2: TGGTGGCTACGACGGGATT
B8: CUCUGGA (DNA:RNA)
RNA: B5 RNA with U25C, A26U, G27C, A28U
DNA 1: CAATCTGAATTCCGGTCTCCC
DNA 2: TGGTGGCTACGACGGGATT
B9: GCUGAAU (DNA:RNA)
RNA: B1 RNA with A25G, C28G, C29A, G31U
DNA 1: CAATCTGAATTCCGGTCTCCC
DNA 2: TGGTGGCTACGACGGGATT
B10: UUGGUGU (DNA:RNA)
RNA: B5 RNA with A26U, A28G, G29U, A31U
DNA 1: CAATCTGAATTCCGGTCTCCC
DNA 2: TGGTGGCTACGACGGGATT
B11: UCGUAAC (DNA:RNA)
RNA: B1 RNA with A25U, U27G, C28U, C29A, G31C
DNA 1: CAATCTGAATTCCGGTCTCCC
DNA 2: TGGTGGCTACGACGGGATT
B12: CGUUAGA (DNA:RNA)
RNA: B5 RNA with U25C, A26G, G27U, A28U, G29A
DNA 1: CAATCTGAATTCCGGTCTCCC
DNA 2: TGGTGGCTACGACGGGATT
B13: GGUCCGC (DNA:RNA)
RNA: B1 RNA with A25G, C26G, A30G, G31C
DNA 1: CAATCTGAATTCCGGTCTCCC
DNA 2: TGGTGGCTACGACGGGATT
B14: GGACCCC (DNA:RNA)
RNA: B1 RNA with A25G, C26G, U27A, A30C, G31C
DNA 1: CAATCTGAATTCCGGTCTCCC
DNA 2: TGGTGGCTACGACGGGATT
B15: GUCCCAC (DNA:RNA)
RNA: B1 RNA with A25G, C26U, U27C, G31C
DNA 1: CAATCTGAATTCCGGTCTCCC
DNA 2: TGGTGGCTACGACGGGATT
B16: GGAUAAU (DNA:RNA)
RNA: B1 RNA with A25G, C26G, U27A, C28U, C29A, G31U
DNA 1: CAATCTGAATTCCGGTCTCCC
DNA 2: TGGTGGCTACGACGGGATT
B17: GCUCAGC (DNA:RNA)
RNA: B1 RNA with A25G, C29A, A30G, G31C
DNA 1: CAATCTGAATTCCGGTCTCCC
DNA 2: TGGTGGCTACGACGGGATT
B18: CCCGCCU (DNA:RNA)
RNA: B1 RNA with A25C, U27C, C28G, A30C, G31U
DNA 1: CAATCTGAATTCCGGTCTCCC
DNA 2: TGGTGGCTACGACGGGATT
B19: AAUUUAC (DNA:RNA)
RNA: B1 RNA with C26A, C28U, C29U, G31C
DNA 1: CAATCTGAATTCCGGTCTCCC
DNA 2: TGGTGGCTACGACGGGATT
B20: CGAGCAG (DNA:RNA)
RNA: B1 RNA with A25C, C26G, U27A, C28G
DNA 1: CAATCTGAATTCCGGTCTCCC
DNA 2: TGGTGGCTACGACGGGATT
B21: GGUCUAU (DNA:RNA)
RNA: B1 RNA with A25G, C26G, C29U, G31U
DNA 1: CAATCTGAATTCCGGTCTCCC
DNA 2: TGGTGGCTACGACGGGATT
B22: CGGUACC (DNA:RNA)
RNA: B5 RNA with U25C, A26G, A28U, G29A, G30C, A31C
DNA 1: CAATCTGAATTCCGGTCTCCC
DNA 2: TGGTGGCTACGACGGGATT
B23: CCGACGU (DNA:RNA)
RNA: B5 RNA with U25C, A26C, G29C, A31U
DNA 1: CAATCTGAATTCCGGTCTCCC
DNA 2: TGGTGGCTACGACGGGATT
B24: AACGCUU (DNA:RNA)
RNA: B1 RNA with C26A, U27C, C28G, A30U, G31U
DNA 1: CAATCTGAATTCCGGTCTCCC
DNA 2: TGGTGGCTACGACGGGATT
B25: UGUCAGA (DNA:RNA)
RNA: B5 RNA with A26G, G27U, A28C, G29A
DNA 1: CAATCTGAATTCCGGTCTCCC
DNA 2: TGGTGGCTACGACGGGATT
B26: ACUCGCG (DNA:RNA)
RNA: B1 RNA with C29G, A30C
DNA 1: CAATCTGAATTCCGGTCTCCC
DNA 2: TGGTGGCTACGACGGGATT
B27: GAGUACC (DNA:RNA)
RNA: B5 RNA with U25G, A28U, G29A, G30C, A31C
DNA 1: CAATCTGAATTCCGGTCTCCC
DNA 2: TGGTGGCTACGACGGGATT
B28: UGGGAAC (DNA:RNA)
RNA: B5 RNA with A26G, A28G, G29A, G30A, A31C
DNA 1: CAATCTGAATTCCGGTCTCCC
DNA 2: TGGTGGCTACGACGGGATT
B29: CCAGAAA (DNA:RNA)
RNA: B1 RNA with A25C, U27A, C28G, C29A, G31A
DNA 1: CAATCTGAATTCCGGTCTCCC
DNA 2: TGGTGGCTACGACGGGATT
B30: UGAAAUA (DNA:RNA)
RNA: B5 RNA with A26G, G27A, G29A, G30U
DNA 1: CAATCTGAATTCCGGTCTCCC
DNA 2: TGGTGGCTACGACGGGATT
B31: AAGCUCA (DNA:RNA)
RNA: B5 RNA with U25A, A28C, G29U, G30C
DNA 1: CAATCTGAATTCCGGTCTCCC
DNA 2: TGGTGGCTACGACGGGATT

The target of this test is T1, RBFOX1 RRM RbFoxmut (Fox-RRM*) (Homo sapiens, UniProt Q9NWB1 109-208, R118D;E147R;N151S;E152T).
T1 sequence: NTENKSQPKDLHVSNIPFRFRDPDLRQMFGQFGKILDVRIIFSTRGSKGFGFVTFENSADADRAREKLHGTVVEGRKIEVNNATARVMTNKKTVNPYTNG
Description: EMSA; HiTS-Eq, 1 nM pool, 10 min; buffer printed only for the single-RNA assays: 10 mM Tris pH 7.5, 150 mM NaCl, 3.4 mM EDTA, 0.001% NP-40, 30 C. Conditions: tags: His6 N-terminal (pET28a); label: 5' 32P. Put shortly:
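Relative association constants, normalised to the cognate motif, were derived by comparing read counts of each RNA species with those of the control reaction. The RNA sequenced was the free fraction, separated by 8% native PAGE after a 10 min equilibration in 50 µL of 1 nM 5′-radiolabelled RNA (7 randomized nucleotides) with increasing concentrations of purified wild-type or mutant RbFox RRM.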
In general terms: A gel shift assay detects complexes by their altered migration in electrophoresis.
Take B1: the binding signal was 0.106 KA relative to UGCAUGU.
Under B2 stands 0.115 KA relative to UGCAUGU.
For the molecule B3, the binding signal is 0.0558 KA relative to UGCAUGU.
Take B4: the binding signal was 0.107 KA relative to UGCAUGU.
As to B5, the binding signal is 0.0732 KA relative to UGCAUGU.
For B6, the binding signal was 0.128 KA relative to UGCAUGU.
Under B7 stands 0.0541 KA relative to UGCAUGU; under B8, 0.0625 KA relative to UGCAUGU.
As for B9, the figure is 0.0601 KA relative to UGCAUGU.
For the molecule B10, the binding signal was 0.168 KA relative to UGCAUGU.
As for B11, the figure is 0.0862 KA relative to UGCAUGU.
As for B12, the figure is 0.118 KA relative to UGCAUGU.
With B13, the binding signal is 0.128 KA relative to UGCAUGU.
Under B14 stands 0.0627 KA relative to UGCAUGU; under B15, 0.0578 KA relative to UGCAUGU.
In the case of B16, the binding signal is 0.0888 KA relative to UGCAUGU.
As for B17, the figure is 0.0895 KA relative to UGCAUGU.
Under B18 stands 0.0593 KA relative to UGCAUGU.
As for B19, the figure is 0.113 KA relative to UGCAUGU; as for B20, 0.0773 KA relative to UGCAUGU; as for B21, 0.1 KA relative to UGCAUGU.
With B22, the binding signal was 0.102 KA relative to UGCAUGU.
Under B23 stands 0.0783 KA relative to UGCAUGU; under B24, 0.0863 KA relative to UGCAUGU; under B25, 0.103 KA relative to UGCAUGU.
Under B26 stands 0.0932 KA relative to UGCAUGU; under B27, 0.103 KA relative to UGCAUGU.
Under B28 stands 0.0921 KA relative to UGCAUGU; under B29, 0.127 KA relative to UGCAUGU.
B30: the binding signal is 0.0989 KA relative to UGCAUGU.
Under B31 stands 0.104 KA relative to UGCAUGU.
